{"source": "the supplement of paper PMC6531468", "note": "The list shows a part of the results. Read counts after selection give these values, which scatter widely. Scores sum up all selected molecules that hold the word; the word was not tested alone.", "data": [{"system": "IMP3 RRM1-2", "sequence (chain, as listed by the source)": "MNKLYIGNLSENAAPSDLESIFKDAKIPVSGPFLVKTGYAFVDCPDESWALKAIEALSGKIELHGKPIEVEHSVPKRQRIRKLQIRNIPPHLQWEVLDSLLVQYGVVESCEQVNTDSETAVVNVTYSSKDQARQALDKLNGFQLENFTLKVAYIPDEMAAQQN", "assay": "6-mer SELEX enrichment z-score vs GST control; IMP3 is the RNA-binding protein IGF2BP3; higher = more enriched by binding", "conditions": "construct: RRM1-2 (1-163); SELEX round: R2", "procedure": "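SELEX-seq with GST-tagged IMP3 RRM1-2 (Met1-Asn163) and an N40 RNA pool, round 2. 6-mer enrichment z-score normalised to GST SELEX. RNA written as DNA (T = U).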", "values": [{"sequence": "CCCGGC", "6-mer SELEX enrichment z-score": -0.162}, {"sequence": "AATTCC", "6-mer SELEX enrichment z-score": -0.479}, {"sequence": "GGGCCT", "6-mer SELEX enrichment z-score": 0.068}, {"sequence": "TGAAAT", "6-mer SELEX enrichment z-score": -0.958}, {"sequence": "TATTCC", "6-mer SELEX enrichment z-score": 0.007}, {"sequence": "ACGGCT", "6-mer SELEX enrichment z-score": 0.33}, {"sequence": "GCCCCT", "6-mer SELEX enrichment z-score": -0.339}, {"sequence": "GACTCC", "6-mer SELEX enrichment z-score": -0.559}, {"sequence": "AAACCA", "6-mer SELEX enrichment z-score": 0.004}, {"sequence": "TTTTTT", "6-mer SELEX enrichment z-score": 0.678}, {"sequence": "TGCAGC", "6-mer SELEX enrichment z-score": 0.199}, {"sequence": "GGTGCC", "6-mer SELEX enrichment z-score": 0.124}, {"sequence": "CTCGCT", "6-mer SELEX enrichment z-score": 0.238}, {"sequence": "AAGGTT", "6-mer SELEX enrichment z-score": -0.094}, {"sequence": "GTGTGT", "6-mer SELEX enrichment z-score": 0.351}, {"sequence": "GCGCAT", "6-mer SELEX enrichment z-score": 0.602}, {"sequence": "CCCCCA", "6-mer SELEX enrichment z-score": -0.822}, {"sequence": "AACGAA", "6-mer SELEX enrichment z-score": -2.54}, {"sequence": "TTCTTC", "6-mer SELEX enrichment z-score": 0.589}, {"sequence": "CATGGG", "6-mer SELEX enrichment z-score": 0.61}, {"sequence": "ATCCGG", "6-mer SELEX enrichment z-score": -0.303}, {"sequence": "GTGGAG", "6-mer SELEX enrichment z-score": -0.082}, {"sequence": "TCATTA", "6-mer SELEX enrichment z-score": 1.63}, {"sequence": "CGCTAA", "6-mer SELEX enrichment z-score": -0.419}, {"sequence": "CAAAAG", "6-mer SELEX enrichment z-score": -1.34}, {"sequence": "CCCTCC", "6-mer SELEX enrichment z-score": -0.405}, {"sequence": "ACCAAA", "6-mer SELEX enrichment z-score": -1.18}, {"sequence": "ATGCTG", "6-mer SELEX enrichment z-score": -0.089}, {"sequence": "TATCTC", "6-mer SELEX enrichment z-score": 0.409}, {"sequence": "TTGGTA", "6-mer SELEX enrichment z-score": 0.496}, {"sequence": "TGTCGA", "6-mer SELEX enrichment z-score": 0.062}, {"sequence": "CAGCAG", "6-mer SELEX enrichment z-score": 1.68}, {"sequence": "GTGGTC", "6-mer SELEX enrichment z-score": 0.364}, {"sequence": "TAGTAG", "6-mer SELEX enrichment z-score": 0.251}, {"sequence": "TGCAAT", "6-mer SELEX enrichment z-score": 0.155}, {"sequence": "GCCAGT", "6-mer SELEX enrichment z-score": -0.13}, {"sequence": "TGGTAA", "6-mer SELEX enrichment z-score": -0.072}, {"sequence": "CCCTCG", "6-mer SELEX enrichment z-score": -0.158}, {"sequence": "CATATG", "6-mer SELEX enrichment z-score": 0.673}]}]}
